PubChem BioAssay (NCI)
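Step 1: Grow cells in 96-well plates. Step 2: Expose to compound for 48 hours at 5 concentrations. Step 3: Interpolate endpoints linearly; if unreached, use highest concentration. GI50 is the concentration that inhibits growth by half. TGI denotes the concentration required for complete inhibition of growth.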

System: NCI-H322M lung
Experiment: NCI-60 cell line screen, 48 h

COc1cccc2c1[C@H](OC)[C@]13O[C@@]1(C2=O)[C@H](O)[C@H](C)[C@@](O)(C(=O)[C@@H]1O[C@H]1C)[C@@H]3O
GI50: 0.237 µM | TGI: 0.74 µM
